From a compilation of properties of binary mixtures (doi:10.1016/j.jct.2020.106150)
The densities may have been worked out from excess volumes.

Assay: xn = mol fraction of the nth substance listed
Settings: 100 kPa

O=Cc1ccco1 + CCCC[P+](C)(CCCC)CCCC.COS(=O)(=O)[O-]
mass density [kg/m3]
Settings | 293.15 K | 298.15 K | 303.15 K | 308.15 K | 313.15 K | 318.15 K | 323.15 K
x2 = 0 | 1160 | 1155 | 1149 | 1144 | – | 1133 | 1128
x2 = 0.062 | 1151 | – | 1138 | 1133 | 1126 | – | 1114
x2 = 0.1 | – | – | 1133 | 1128 | – | 1117 | 1110
x2 = 0.142 | 1141 | 1134 | 1128 | – | 1117 | – | 1106
x2 = 0.191 | – | 1129 | – | 1118 | 1112 | 1107 | –
x2 = 0.249 | 1126 | 1121 | 1116 | 1111 | 1107 | – | –
x2 = 0.317 | 1117 | 1113 | 1108 | – | 1099 | 1095 | 1091
x2 = 0.399 | 1108 | 1104 | 1099 | 1095 | 1091 | 1087 | 1083
x2 = 0.499 | 1098 | 1094 | 1089 | 1086 | 1082 | – | 1074
x2 = 0.624 | – | 1083 | 1079 | – | 1072 | 1068 | 1064
x2 = 0.732 | 1079 | 1075 | – | 1068 | 1064 | 1061 | 1056
x2 = 0.823 | 1073 | 1069 | 1065 | 1062 | 1058 | 1055 | 1049
x2 = 0.863 | 1071 | 1067 | 1063 | 1060 | 1056 | 1053 | 1047
x2 = 0.91 | 1068 | 1064 | 1060 | 1057 | 1054 | 1050 | 1045
x2 = 0.951 | 1065 | 1062 | 1058 | 1055 | 1052 | 1049 | 1045

CCCC[P+](C)(CCCC)CCCC.COS(=O)(=O)[O-] + O=Cc1ccco1
x1 = 1
Settings | mass density [kg/m3]
293.15 K | 1062
298.15 K | 1059
303.15 K | 1056
308.15 K | 1053
313.15 K | 1049
318.15 K | 1046
323.15 K | 1043
